Where “and” joins values, the source holds several entries; their conditions need not be identical. Identical values can stand only once. In all, about 220,000 compounds went through this assay and about 16,000 (7.3%) were called active. The inconclusive results got no clear call from the source; some entries with a clear call stand among them for comparison. The call rests on the fitted dose curve; in most records, active means well fitted inhibition curve with a large enough effect (not every such curve was filed as active); inconclusive means small, poorly fitted or top-dose-only effect, or another doubt; inactive means no such curve, though single readings can be large or run the other way. Potencies beside an inconclusive call are fits to weak or partial responses and may not hold up. A structure can be active in one record and inactive in another.
Biological target: Aldehyde dehydrogenase 1A1 (Homo sapiens) (UniProt P00352)
Sequence of UniProt P00352 (P00352 whole entry, looked up): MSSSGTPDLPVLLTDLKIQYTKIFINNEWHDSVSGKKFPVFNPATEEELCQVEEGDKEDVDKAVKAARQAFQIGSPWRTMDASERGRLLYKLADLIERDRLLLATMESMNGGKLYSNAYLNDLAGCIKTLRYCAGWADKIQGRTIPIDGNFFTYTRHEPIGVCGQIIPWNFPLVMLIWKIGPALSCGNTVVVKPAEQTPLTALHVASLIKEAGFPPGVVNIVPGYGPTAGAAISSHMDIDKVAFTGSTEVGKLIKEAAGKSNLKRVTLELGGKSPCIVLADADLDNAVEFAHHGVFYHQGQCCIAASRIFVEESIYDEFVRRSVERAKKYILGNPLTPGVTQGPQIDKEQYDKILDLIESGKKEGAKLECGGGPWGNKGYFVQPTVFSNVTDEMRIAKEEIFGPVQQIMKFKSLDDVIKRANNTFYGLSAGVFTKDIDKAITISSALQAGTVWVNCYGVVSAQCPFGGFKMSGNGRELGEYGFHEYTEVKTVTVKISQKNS
Test: qHTS Assay for Inhibitors of Aldehyde Dehydrogenase 1 (ALDH1A1)
Details: Purified ALDH1A1, NADH fluorescence, propionaldehyde substrate; series mostly up to 75.3 µM
Potency means the concentration at half of the fitted maximal effect; tags describe the fitted curve by direction and shape.

| Compound | Potency |
| --- | --- |
| CCCCCOC(=O)C1=C(C)Nc2nnnn2C1c1ccccc1Cl (stereo not given) | active: 2 µM |
| CCOC(=O)c1cnc(-c2ccccc2)nc1N1CC(C)OC(C)C1 (stereo not given) | inconclusive: 35.5 µM [inhibitor, single point] |
| COc1ccc(-c2noc(CCC(=O)Nc3cc(Cl)c(OC)cc3OC)n2)cc1 | inconclusive: 39.8 µM [inhibitor, single point] |
| O=C(COC(=O)CCC(=O)c1cccs1)Nc1ccccc1[N+](=O)[O-] | inactive |
| NNC(=O)c1ccc(CSc2cccc3cccnc23)cc1 | inconclusive: 15.8 µM [inhibitor, partial curve] |
| CCCCC(=O)OCCNC(=O)c1cc2ccccc2oc1=O | inconclusive: 39.8 µM [inhibitor, single point] |
| Cc1ccc(OC(=O)COc2ccccc2)c(-n2nc3ccccc3n2)c1 | inconclusive: 25.1 µM [inhibitor, single point] |
| COc1cccc(C2C3=C(N=C4SCC(=O)N42)c2ccccc2CC3)c1OC (stereo not given) | inconclusive: 20 µM [inhibitor, partial curve] |
| CCOc1ccc(Nc2nc3cc(S(=O)(=O)N(CC)CC)ccc3o2)cc1 | active: 3.16 µM |
| COc1cccc(N2C(=O)C3C(C2=O)C2C=CC3C23CC3)c1 (stereo not given) | inactive |
| CC(C)[C@H](NS(=O)(=O)c1cccc(Cl)c1)C(=O)OCC(=O)N1CCN(c2ccccc2)CC1 | active: 2.51 µM |
| CSC1=C(C#N)C(c2ccc(C)s2)CC(=O)N1 (stereo not given) | inconclusive: 28.2 µM [inhibitor, partial curve] |
| C=CCNC(=O)c1ccccc1NC(=O)c1ccccc1C | inconclusive: 39.8 µM [inhibitor, single point] |
| O=c1cc(-c2ccc3c(c2)OCO3)oc2ccccc12 | inconclusive: 28.2 µM [inhibitor, partial curve] |
| CC1(C)CC(=O)C(C=NCCN2CCN(C3CC(=O)N(c4ccc(F)cc4)C3=O)CC2)=C(O)C1 (stereo not given) | inconclusive: 22.4 µM [inhibitor, partial curve] |
| Cc1ccc(-c2nn(-c3cccc(F)c3)cc2CNCCc2ccncc2)o1 | inconclusive: 35.5 µM [inhibitor, single point] |
| Cc1ccc(OC(=O)NC2CCS(=O)(=O)C2)cc1C (stereo not given) | inactive |
| COc1ccc(CCNC(=O)CSc2ccc(-c3ccco3)nn2)cc1 | active: 3.16 µM |
| O=C(NC(=S)N1CCN(c2ccc([N+](=O)[O-])cc2Cl)CC1)c1ccco1 | inconclusive: 35.5 µM [inhibitor, single point] |
| Cc1ccc(CNC(=O)CN(C)S(=O)(=O)c2cccc3cccnc23)cc1 | inconclusive: 12.6 µM [inhibitor, partial curve, poor fit] |
| CC(OC(=O)c1ccc(S(=O)(=O)N(C)C)cc1)C(=O)Nc1ccc(Cl)cn1 (stereo not given) | inactive |
| Cc1ccc(C(=O)c2cc([N+](=O)[O-])ccc2N2CCCCC2)cc1 | active: 20 µM |
| Cn1c(SCC(=O)NCc2ccc3c(c2)OCO3)nnc1C1COc2ccccc2O1 (stereo not given) | inactive |
| C=C(C)C(=O)/C=C/CCC/C=C/C(=O)OCC | active: 25.1 µM |

| Compound | Potency |
| --- | --- |
| O=C1C2C3C=CC(C4CC34)C2C(=O)N1/N=C/c1ccc(-c2cccc([N+](=O)[O-])c2)o1 (stereo not given) | active: 14.1 µM |
| Cc1cccc(NC(c2ccc(O)cc2)c2ccc3ccc(C)nc3c2O)n1 (stereo not given) | active: 7.94 µM |
| O=C(CN1CCN(C(=O)c2ccco2)CC1)Nc1ccccc1-c1ccccc1 | active: 6.31 µM |
| O=C(CSc1nnc(-c2ccccc2)o1)N1CCOCC1 | inactive |
| O=C(CSc1nnc(CCCN2C(=O)c3cccc4cccc(c34)C2=O)n1-c1ccccc1)NCCCO | inconclusive: 39.8 µM [inhibitor, single point] |
| CC1=C(C(=O)OCc2ccccc2)C(c2ccccc2-c2ccccc2)NC(=O)N1CCCCCC(=O)O (stereo not given) | inconclusive: 28.2 µM [inhibitor, single point] and inconclusive: 39.8 µM [inhibitor, single point] |
| Cc1onc(-c2ccccc2)c1C(=O)Nc1cccnc1 | inconclusive: 31.6 µM [inhibitor, single point] |
| Cc1ccc(NC(=O)CN(C)C(=O)C2COc3ccccc3O2)cc1 (stereo not given) | inactive |
| O=C(Nc1ccccc1)C1CC(=O)N(c2ccc3c4c(cccc24)CC3)C1 (stereo not given) | inconclusive: 37.7 µM [inhibitor, single point] |
| O=C(CN1C(=O)/C(=C/c2ccccc2)SC1=S)Nc1cccnc1 | inconclusive: 44.7 µM [inhibitor, single point] |
| Cc1ccc(OC(=O)c2cccc(C(=O)Oc3ccc(C)cn3)n2)nc1 | inconclusive: 28.2 µM [inhibitor, single point] |
| CC(C)CNC(=O)c1ccc(NC(=O)c2ccccc2[N+](=O)[O-])cc1 | inactive |
| O=C(NCc1ccc(F)cc1)c1c2c(nc3ccccc13)CCN(Cc1ccccc1)C2 | inconclusive: 2.24 µM [inhibitor, partial curve, poor fit] |
| COc1ccccc1NS(=O)(=O)c1ccc(O)c(NC(=S)NCC2CCCO2)c1 (stereo not given) | active: 5.62 µM |
| CCNC(=O)NS(=O)(=O)c1cnccc1Nc1cccc(Cl)c1 | inactive |
| CC(C)C1OC2c3cccc4cccc(c34)C2N1c1ccccc1 (stereo not given) | active: 25.1 µM |
| CCOC(=O)c1c(NC(=O)C2COc3ccccc3O2)sc2c1CC(C)(C)NC2(C)C (stereo not given) | inconclusive: 22.4 µM [inhibitor, partial curve, poor fit] |
| CCc1nc2c(sc3nc(N4CCOCC4)c4c(c32)CC(C)(C)OC4)c(=O)o1 | inconclusive: 4.47 µM [inhibitor, partial curve, poor fit] |
| COC(=O)C(C)n1nnc2sc(-c3ccccc3)cc2c1=O (stereo not given) | inconclusive: 31.6 µM [inhibitor, partial curve] |
| C[C@@H](C(=O)NCc1ccccn1)[C@H]1C[C@]1(C)[C@H](NC(=O)OCc1ccccc1)c1ccccc1 | active: 31.6 µM |
| CN(C)C(=O)c1ccc(-c2cncnc2Nc2ccccc2)cc1 | inconclusive: 28.2 µM [inhibitor, partial curve] |
| CCC(C)C(=O)Nc1nc2c(s1)C(=O)CC(C)(C)C2 (stereo not given) | active: 15.8 µM |
| N#C/C(=C\c1cccc([N+](=O)[O-])c1)C(=O)NCc1ccc(Cl)cc1 | inconclusive: 35.5 µM [inhibitor, partial curve] |
| COc1cc(OC)c(OC)cc1/C=N/NC(=S)NCCN1CCOCC1 | inconclusive: 39.8 µM [inhibitor, single point] |

| Compound | Potency |
| --- | --- |
| Cc1nc2cc(C(=O)OCC(=O)NC(C)C(C)C)ccc2n1-c1ccccc1 (stereo not given) | inconclusive: 35.5 µM [inhibitor, partial curve] |
| O=C(NCc1ccccc1)N(Cc1cc2cc3c(cc2[nH]c1=O)OCCO3)CC1CCCO1 (stereo not given) | inconclusive: 25.1 µM [inhibitor, partial curve] |
| COc1ccc2nc3c(c([Si](C)(C)C(C)(C)C)c2c1)Cn1c-3cccc1=O | active: 22.4 µM |
| CCN(C(=O)c1ccc2c(OC)n(CC)nc2c1)c1ccc(OC)cc1 | inconclusive: 25.1 µM [inhibitor, partial curve] |
| Cc1c(N=Cc2ccncc2)c(=O)n(-c2ccccc2)n1C | inconclusive: 25.1 µM [inhibitor, single point] |
| O=C(c1cc(-c2cccs2)nc2ccccc12)N1CCN(S(=O)(=O)c2ccccc2)CC1 | inconclusive: 31.6 µM [inhibitor, partial curve] |
| O=C(c1cnn(C(=O)c2ccc(O)cc2)c1)c1ccccc1O | inconclusive: 39.8 µM [inhibitor, single point] |
| O=C(Cn1c(C(F)(F)F)nc2ccccc21)NCCCN1CCOCC1 | inconclusive: 39.8 µM [inhibitor, single point] |
| O=C(NCCc1ccc2c(c1)OCCO2)c1ccc(F)cc1 | inconclusive: 39.8 µM [inhibitor, single point] |
| CCCCC[C@H](O)/C=C/C1=C(CCCCCCC(=O)O)C(=O)CC1 | inactive |
| O=[N+]([O-])c1ccc(N2CCN(C(=S)Nc3cccc(F)c3)CC2)cc1 | active: 14.1 µM |
| O=C(O)C(S)[C@@H](S)C(=O)O (stereo not given in full) | active: 3.55 µM |
| CC(NCc1ccc(S(N)(=O)=O)cc1)C(=O)Nc1cc([N+](=O)[O-])ccc1Cl (stereo not given) | inconclusive: 37.7 µM [inhibitor, single point] |
| COc1ccc(C(=O)COC(=O)c2ccco2)cc1 | inconclusive: 39.8 µM [inhibitor, single point] |
| COc1ccc(OC)c(S(=O)(=O)N2c3ccccc3CC2C)c1 (stereo not given) | inactive |
| CCCc1c(-c2ccc(O)cc2)nn(-c2ccc(O)cc2)c1-c1ccc(O)cc1 | inactive |
| CCOc1ccc2[nH]c(=O)c(C(c3nnnn3C3CCCCC3)N3CCN(CC)CC3)cc2c1 (stereo not given) | inconclusive: 31.6 µM [inhibitor, partial curve] |
| CC1CCCN(C(=O)c2sc3cc([N+](=O)[O-])ccc3c2Cl)C1 (stereo not given) | active: 5.62 µM |
| CCCc1nnc(SCC(=O)N2C(C)CCCC2C)n1CCCOC (stereo not given) | inconclusive: 44.7 µM [inhibitor, single point] |
| O=C(Nc1ccccc1N1CCN(c2ccc(F)cc2)CC1)C12CC3CC(CC(C3)C1)C2 | inconclusive: 39.8 µM [inhibitor, single point] |
| Cc1ccc(C=Nc2cccnc2N)cc1 | inconclusive: 35.5 µM [inhibitor, single point] |
| CC(=O)N(CCCCN1C(=O)c2ccccc2C1=O)c1ccc(C)cc1 | inactive |
